Measurements published in PMC4336329 (PLoS ONE, 2015).
Hit rate of the full screen: of about 310,000 compounds, about 2,200 (0.71%) showed an effect of 50% or more. Effects have a minus sign here. Some of the results follow.

Biological target: human ether-à-go-go-related gene (hERG) potassium channel (human, UniProt Q12809)
Assay: primary screen, population patch clamp on CHO cells stably expressing hERG

human ether-à-go-go-related gene (hERG) potassium channel, sequence (Q12809 whole entry, looked up): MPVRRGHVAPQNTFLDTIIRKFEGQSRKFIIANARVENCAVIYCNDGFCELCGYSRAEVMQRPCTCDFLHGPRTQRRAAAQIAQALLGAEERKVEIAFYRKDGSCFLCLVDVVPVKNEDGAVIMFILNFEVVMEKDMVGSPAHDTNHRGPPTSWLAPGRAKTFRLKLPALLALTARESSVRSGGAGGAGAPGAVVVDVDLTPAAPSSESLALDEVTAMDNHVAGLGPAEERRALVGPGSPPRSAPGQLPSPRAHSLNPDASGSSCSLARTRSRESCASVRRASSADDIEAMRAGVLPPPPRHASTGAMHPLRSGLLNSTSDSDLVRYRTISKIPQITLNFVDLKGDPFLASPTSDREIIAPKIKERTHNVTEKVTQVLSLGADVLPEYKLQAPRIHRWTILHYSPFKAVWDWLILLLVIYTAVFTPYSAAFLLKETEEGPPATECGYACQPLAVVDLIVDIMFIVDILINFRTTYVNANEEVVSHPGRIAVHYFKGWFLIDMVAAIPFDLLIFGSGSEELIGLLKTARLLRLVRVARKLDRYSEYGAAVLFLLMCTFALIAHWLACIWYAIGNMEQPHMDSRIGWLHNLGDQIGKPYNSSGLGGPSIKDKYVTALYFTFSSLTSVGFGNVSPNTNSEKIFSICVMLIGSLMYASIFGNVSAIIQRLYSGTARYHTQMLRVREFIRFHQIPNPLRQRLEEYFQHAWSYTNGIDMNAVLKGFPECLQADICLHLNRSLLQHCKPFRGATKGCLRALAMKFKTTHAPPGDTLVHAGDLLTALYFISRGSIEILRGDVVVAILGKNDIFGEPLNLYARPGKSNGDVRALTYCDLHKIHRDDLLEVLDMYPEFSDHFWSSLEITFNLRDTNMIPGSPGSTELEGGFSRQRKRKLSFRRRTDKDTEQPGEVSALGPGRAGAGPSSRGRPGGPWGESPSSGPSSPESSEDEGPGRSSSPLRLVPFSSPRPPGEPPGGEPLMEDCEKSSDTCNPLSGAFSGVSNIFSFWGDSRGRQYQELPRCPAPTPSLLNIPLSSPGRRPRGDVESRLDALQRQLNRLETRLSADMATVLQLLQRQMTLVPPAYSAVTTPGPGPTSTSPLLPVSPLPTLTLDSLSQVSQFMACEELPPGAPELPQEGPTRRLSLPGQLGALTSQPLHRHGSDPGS

Compound	hERG current change (%, negative = inhibition) at 1uM [%]
C[N+](C)(C)CCCN(Cc1ccc2c(c1)OCO2)C(=O)NC1CCCCC1.[I-]	12.5
O=C(Nc1ccc(NS(=O)(=O)c2ccccc2)cc1)c1ccc(Cl)cc1	-2.54
CCN(CCNC(=O)C1CCN(S(=O)(=O)c2cccc3nsnc23)CC1)c1ccccc1	1.2
CNC(=S)NNC(=O)c1cc(C(C)(C)C)nn1Cc1ccc(F)cc1	15.1
O=C(C1CCCCN1S(=O)(=O)c1ccccc1)N1CCN(Cc2ccccc2)CC1 (stereo not drawn)	7.17
Cn1c(NCc2ccco2)nc2ccccc21	-7.71
CC(C)CCNC(=O)NC(=O)CSc1nnc2ccccn12	19.2
O=C(CN1C(=O)COc2ccc(S(=O)(=O)N3CCOCC3)cc21)NCc1ccccn1	10.8
O=C(Cc1n[nH]c(=O)c2ccccc12)OCC(=O)c1ccc(F)c(F)c1	20.2
Cc1cccc(C(=O)NC(=S)N2CCN(c3ccc([N+](=O)[O-])cc3)CC2)c1	1.02
Cn1c(SCC(=O)Nc2ccccc2O)nnc1-c1ccco1	-10.5
COc1cccc(CC(=O)Nc2ccc3c(c2)OC2(CCCC2)O3)c1	-2.94
NS(=O)(=O)c1ccc(CCNC(=S)NC2CCCCC2)cc1	7.21
CCNc1nc(NCC)n2c(SCC(=O)Nc3ccc(CC)cc3)nnc2n1	14.4
CCCn1c(NC(=O)c2ccco2)nc2ccccc21	12.2
CN1CCN(C(=S)SCc2nc(N)nc(Nc3ccc(F)cc3)n2)CC1	3.05
O=C(NCc1ccc(F)cc1)N1CCc2ccccc2C1	10.2
Cc1ccccc1-n1c(SCC(N)=O)nc2sc(-c3ccccc3)cc2c1=O	11.8
CC1Cc2ccccc2N1CC(=O)N(C)c1c(N)n(Cc2ccccc2)c(=O)[nH]c1=O (stereo not drawn)	2.89
CCCCCCCC(=O)OC(CN1CCCC1=O)C[NH+]1CCCCCC1.[Cl-] (stereo not drawn)	8.17
CC(Oc1ccc(Cl)cc1)C(=O)Nc1nccs1 (stereo not drawn)	5.62
COc1ccc(-c2noc(-c3ccccc3C(=O)NCc3ccco3)n2)cc1OC	-9.11

Compound	hERG current change (%, negative = inhibition) at 1uM [%]
Cc1cc(=O)c(C(=O)O)cn1Nc1ccc(F)cc1	4.96
COc1ccc(OC)c(S(=O)(=O)Nc2ccc3c(c2)N(C(C)=O)CCC3)c1	9.1
CC(CN1C(C)CCCC1C)OC(=O)c1ccccc1Br.Cl (stereo not drawn)	4.15
CCCCn1c(SCC(=O)N(C)C2CCS(=O)(=O)C2)nc2cc(S(N)(=O)=O)ccc21 (stereo not drawn)	12.5
Cc1cc(C)c(C#N)c(N2CCC(C(N)=O)CC2)n1	2.67
COc1ccc(-c2noc(-c3ccc(Br)o3)n2)cc1	13.9
CCCOc1ccc(-c2nc(N3CCN(C)CC3)c3ccccc3n2)cc1	4.17
O=C(Nc1ccccc1)O/N=C/c1ccncc1	12.9
Cn1c(CN2CCCC2)nc2cc(NC(=O)COc3ccc(Cl)cc3)ccc21	-13
CCC(C)(C(=O)NC1CCCC1)N(C(=O)c1ccccn1)c1ccc(C)cc1 (stereo not drawn)	14.6
CCN1CCN(C(=O)CCc2nnc(CCc3ccccc3OC)o2)[C@@H](C)C1=O	16.7
CN(C)S(=O)(=O)c1ccc(Cl)c(NC(=O)CN2C(=O)NC3(CCCC3)C2=O)c1	13.2
Cc1cccc(C)c1N1C(=O)c2cccc([N+](=O)[O-])c2C1=O	2.99
Cc1ccc(NC(=O)C2=CCN(S(=O)(=O)c3ccc(F)cc3)CC2)cc1	3.31
COc1ccc(N(CCC(=O)O)S(=O)(=O)c2ccc(C)cc2C)cc1	8.05
Cc1ccc(NC(=O)Cn2nc(-c3ccccc3Cl)ccc2=O)c(Br)c1	1.06
Cc1sc(NC(=O)CN2C(=O)NC3(CCCC3)C2=O)nc1-c1ccc(F)cc1	-11.1
Cc1ccc(CN2C(=O)c3ccccc3NC23CCN(Cc2ccccc2)CC3)cc1	-9.06
Cc1ccc2c(c1)nnn2C1CCN(C(=O)NCc2ccccc2)CC1	-44.4
Cc1cccc(CN2CCN(C(C)C(=O)NC(C)c3ccccc3)CC2)c1.O=C(O)C(=O)O (stereo not drawn)	12
CC1CCCN(CCCNC(=O)c2cc3c(Cl)nc4ccccc4c3s2)C1 (stereo not drawn)	-15.5
O=C(c1ccc2nc(Cc3cccc(Cl)c3)oc2c1)N1CCC[C@H]1CO	12.4

Compound	hERG current change (%, negative = inhibition) at 1uM [%]
O=C(C1CC(=O)N(c2ccc(F)cc2)C1)N1CCN(c2ccc(F)cc2)CC1 (stereo not drawn)	-71.1
Cc1ccc(C)c(SCc2noc(C(=O)NC(C)C)c2C(=O)O)c1	3.63
Cc1c(C(=O)N2CCCCC2)c(S(=O)(=O)NCc2ccc(Cl)cc2)c(C)n1C	6.78
CCSc1nnc(NC(=O)C(CC)Oc2ccccc2)s1 (stereo not drawn)	18.2
Nc1ccc(Sc2ccccc2)nc1	8.87
CN(Cc1ccccc1)c1nc2c(c(=O)n(C)c(=O)n2C)n1CCSc1ncccn1	4.21
CCCOc1ccc(NC(=O)Cc2ccc(S(=O)(=O)N3CCOCC3)s2)cc1OCCC	21.1
CSc1ncccc1C(=O)N1CCN(S(=O)(=O)c2ccc(C)cc2)CC1	3.52
C(=N\C(/N=C/c1ccco1)c1ccco1)/c1ccco1	9.71
Cc1ccccc1NC(=O)c1ccc(OCc2c(C)noc2C)cc1	7.91
O=c1cc(N2CCN(Cc3ccccc3)CC2)[nH]c(=O)n1-c1cccc(C(F)(F)F)c1	9.84
Cc1nn(C(C)C(=O)NCc2ccco2)c(=O)c2nn(-c3ccccc3)c(C)c12 (stereo not drawn)	6.66
CC(=O)N1CC(=O)N(Cc2ccccc2)/C(=C/c2ccccc2)C1=O	17.1
C=CCOc1c(Cl)cc(C2NC(=O)NC(C)=C2C(=O)OC)cc1Cl (stereo not drawn)	0.4
Cc1nc2ccc(NC(=O)C3CCN(S(=O)(=O)c4cccs4)CC3)cc2s1	7.35
CCCCNC(=O)N(O)C1N(CCCC)C(=O)N(CC(=O)OC)C1(C)C (stereo not drawn)	19.3
COc1ccc(S(=O)(=O)N2CCN(C(=O)c3ccco3)CC2)c(C)c1C	10.9
CCOC(=O)C1CCCN(C(=O)C2CC(=O)N(c3ccc(C)cc3)C2)C1 (stereo not drawn)	8.97
Cc1ccccc1OCC(=O)O/N=C(\N)Cc1ccc(Cl)cc1	14
Cc1cccc(OCCCC(=O)NC2CCCCC2)c1	11.5
CCOc1ccccc1/C=N/NC(=O)c1ccc(Cn2cc([N+](=O)[O-])cn2)o1	-2.54
CS(=O)(=O)N1CCN(c2ccccc2NC(=O)c2cc3ccccc3o2)CC1	4.82

Compound	hERG current change (%, negative = inhibition) at 1uM [%]
COC(=O)c1ccccc1S(=O)(=O)N(Cc1cc2cc3c(cc2[nH]c1=O)OCO3)C1CCCCC1	4.54
CN1CCc2nc(SCc3ccccc3Br)c(C#N)cc2C1	1.82
COC(=O)c1ccc(C(=O)OC)c(NC(=O)CN(c2ccc3c(c2)OCO3)S(C)(=O)=O)c1	-1.42
O=C(Nc1nc2ccc([N+](=O)[O-])cc2s1)c1ccncc1	0.0256
Cc1ccc(NC(=O)c2noc3c2CCc2ccccc2-3)cc1	11.5
O=C(Nc1ccc2c(c1)OCO2)C1CCCN(c2nc3ccccc3s2)C1 (stereo not drawn)	-0.341
N#Cc1nc(COc2cccc(Cl)c2)oc1N1CCN(c2ccccc2)CC1	3.52
O=C(CCNc1cccc(Cl)c1)c1cccs1	2.97
Cc1cc(C)c(NS(=O)(=O)c2ccc(NC(=O)CCC(=O)O)cc2)c(C)c1	11.6
CCOc1ccccc1CN1C(=O)c2ccccc2C1C(=O)NC(C)CC (stereo not drawn)	3.49
Nc1cccnc1Sc1cc(Cl)c(Cl)cc1Cl	12.9
COCCCNC(=O)C1CCN(c2ccc(N3CCOCC3)nn2)CC1	10.3
CC(=O)c1ccc(S(=O)(=O)NCCC(=O)OCC(=O)N2CCCC2=O)cc1	7.46
CN(C(=O)c1cc2c(s1)-c1ccccc1S(=O)(=O)C2)c1ccccc1	5.76
O=C(Nc1nnc(-c2ccc(F)cc2)o1)c1cc(Cl)sc1Cl	12.2
Cc1ccc(C(=O)O)cc1NC(=O)CCc1ccccc1	15.3
COc1cccc(OCc2cc(/C=N/NC(=O)c3nc(Cl)c(Cl)c(N)c3Cl)ccc2OC)c1	15.3
COc1ccc(Br)c(C(=O)OCC(=O)NC2CC2)c1	4.17
CCn1cc(C(=O)NCCCOC(C)C)c(=O)c2cc(S(=O)(=O)N3CCC(C)CC3)ccc21	18.5
Cc1cccn2c(=O)c(/C=N/O)c(Nc3ccccc3F)nc12	5.49
CSCCC(NS(=O)(=O)c1ccc2c(c1)oc(=O)n2C)C(=O)NCc1ccc(C)cc1 (stereo not drawn)	8.74
